# Measurements published in PubChem BioAssay AID652104 (National Center for Advancing Translational Sciences (NCATS), 2013).
# Hit rate of the full screen: of about 410,000 compounds, about 7,200 (1.8%) were called active. Inconclusive means that the source gave no clear call. Such entries were picked first, then a sample of the others. Calls come from the whole dose curve; as a rule, active = well fitted activation curve with a large enough effect; inconclusive = small, poorly fitted or top-dose-only effect, or another doubt; inactive = no such curve, though single readings can be large or run the other way. No potency is given beside an inconclusive call; the fits are too rough.
# Assay: qHTS of TDP-43 Inhibitors; note: nearly all actives have a fitted effect of over 50% in size; for growth rescue (activation): % of control where 0% means no effect
# Conditions: TDP-43 expressing yeast growth rescue, BacTiter-Glo, 24 h; growth rescue (activation): at 46.1 µM (top of the series) unless noted
# How it was run: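 Cell-based yeast growth screen: TDP-43 expression induced in galactose, inoculum OD600=0.02 after raffinose pregrowth to mid-log. Read-out BacTiter-Glo luminescence at 24 hr, 30 deg C; inhibition of toxicity seen as signal increase.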
# Potency is the fitted concentration of half-maximal effect; tags give direction and shape of the fitted curve.
Structure (SMILES),Potency,growth rescue (activation)
COc1ccc(N(CC(=O)NC(C)c2ccccc2)S(=O)(=O)c2c(C)noc2C)cc1 (centres undefined),"inconclusive [activator, partial curve, poor fit]",
CC1(C(=O)NCc2ccc(Cl)cc2)CCN1C(=O)c1cccc(F)c1 (centres undefined),"inconclusive [activator, partial curve]",
CC(C)(C)OC(=O)N[C@@H](Cc1ccccc1)C(=O)N[C@@H](CO)[C@H](O)[C@@H]1C[C@@H]1C(=O)NC1CC1,"inconclusive [activator, single point]",
Cc1ccc(CN2CCC(CNc3ncnc4onc(-c5ccc(Cl)cc5)c34)CC2)cc1,inactive,
O=C(c1ccc(-c2ccccc2)cc1)N1CCN(c2ccccn2)CC1,,inactive: -2.63% [at 9.22 µM]
c1ccc(OCc2nc(-c3ccncc3)no2)cc1,active: 11.2 µM,
Cc1csc(SCC(=O)Nc2ncc(Cl)c(C)c2Cl)n1,"inconclusive [activator, single point]",
Cc1nnc(N2C(=O)c3cccc4cccc(c34)C2=O)s1,inactive,
CCc1nc2ccc(C(=O)NCCC(C)C)cn2c1N(CC)CCOC,"inconclusive [activator, partial curve]",
O=S1(=O)CCC(NC(=S)N2CCOCC2)C1 (centres undefined),"inconclusive [activator, full curve, poor fit]",
N#CCC(=O)N1CC2(CC(c3cccc(NC(=O)COc4ccc(Cl)cc4)c3)=NO2)C[C@@H]1C(N)=O (some centres undefined),inactive,
CCOc1ccccc1CNC(=O)Nc1cn(CC(C)C)c(=O)c2ccccc12,"inconclusive [activator, partial curve]",
Cc1nn2c(NCc3ccccn3)c3c(nc2c1-c1ccccc1)CCC3,,inconclusive: -71.3% [activator]
Cc1cc(C)nc(SCCC(=O)Nc2cccc3ccccc23)n1,"inconclusive [activator, single point]",
CCN(CC)C(=O)c1cc2c(=O)n3cccc(C)c3nc2s1,"inconclusive [activator, single point]",
COc1cc(C(=O)NNC(=S)NC(=O)c2ccccc2C)cc(OC)c1OC,"inconclusive [activator, single point]",
CC(=O)N1c2ccccc2CC1C(=O)N1CCN(c2ccc(F)cc2)CC1 (centres undefined),inactive,
Fc1cccc(-n2ncc(-c3nnnn3-c3ccccc3)c2C(F)(F)F)c1,"inconclusive [activator, partial curve]",
COC(=O)c1sccc1-c1ccc(/C=N/OC(=O)c2cccs2)o1,"inconclusive [activator, single point]",
